Over roughly 33,000 sequences, “E-score (-0.5 to 0.5)” has its median near -0.013; the highest 2% begin near 0.3. Some of the results follow.
Target: T1, Msn1 (UniProt P22148)
T1 sequence: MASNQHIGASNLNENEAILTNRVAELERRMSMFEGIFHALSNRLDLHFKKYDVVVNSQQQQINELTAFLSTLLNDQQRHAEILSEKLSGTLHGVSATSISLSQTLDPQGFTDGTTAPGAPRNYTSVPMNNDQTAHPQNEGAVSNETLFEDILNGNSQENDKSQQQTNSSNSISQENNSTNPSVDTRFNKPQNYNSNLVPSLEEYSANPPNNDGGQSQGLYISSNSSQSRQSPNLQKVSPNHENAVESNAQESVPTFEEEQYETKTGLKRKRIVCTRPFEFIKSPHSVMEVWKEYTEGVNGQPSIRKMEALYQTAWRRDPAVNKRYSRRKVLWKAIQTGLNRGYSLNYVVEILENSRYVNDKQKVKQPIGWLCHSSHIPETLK
Assay: PBM E-score (8-mer binding enrichment) (E-score (-0.5 to 0.5)); higher = stronger / more preferred TF binding; most listed sequences are background and not binding sites
Details: protein concentration: 200 nM; construct: GST-full length
Description: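 Universal 'all 10-mer' protein binding microarrays (Agilent AMADID 015681) probed with GST-tagged S. cerevisiae TFs (full-length or DBD) made by in vitro transcription/translation (PURExpress), about 100-200 nM. Bound TF was detected with fluorescent anti-GST. Each ungapped 8-mer (which stands for itself and its reverse complement) is scored by the PBM enrichment score (E-score), a modified Wilcoxon-Mann-Whitney statistic from -0.5 to +0.5, computed with the Universal PBM Analysis Suite. Scale: above 0.35 generally sequence-specific binding.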

Row | Sequence | PBM E-score
1 | AACGACAC | 0.139
2 | ATCCGGAA | 0.215
3 | ATAGTCCC | -0.175
4 | AACTGCGT | -0.0268
5 | ACATGGAT | 0.162
6 | CATCTTTA | -0.0415
7 | AAAATTAT | 0.194
8 | GCACTAGA | -0.149
9 | AACGATAG | -0.0701
10 | ATACGTTA | -0.0551
11 | ATCAGAGC | 0.0129
12 | CTAGCCCC | -0.22
13 | CCTCGTGC | -0.148
14 | CAAGCGAC | 0.018
15 | ACTCATAG | -0.0128
16 | GCTTAGCA | -0.148
17 | CCTCGGAA | 0.261
18 | CTCAATAA | -0.0223
19 | TCAACACA | 0.0421
20 | AGTCCAAT | 0.0396
21 | GCGCGGCA | -0.0194
22 | TACCGTAA | 0.0902
23 | AAAGGGTC | -0.0303
24 | AGGGCACG | -0.245
25 | GCTATCGA | -0.0543

Row | Sequence | PBM E-score
26 | CTCCTCAC | -0.275
27 | GTAGTCCA | -0.057
28 | CATTCATA | 0.219
29 | ACCCTAAG | 0.0961
30 | CTAGGGCA | -0.169
31 | AGTCTCGC | 0.118
32 | AAAGCCTA | -0.127
33 | TCTCTTCA | 0.071
34 | TAGGTGAA | 0.0103
35 | CTCCCCAG | -0.197
36 | ATGTGTTA | 0.157
37 | GCGACCAA | 0.144
38 | CGCGTAAA | 0.108
39 | AACGGCAA | 0.036
40 | ATGCATCC | -0.0718
41 | GAATCCTA | 0.115
42 | CCCGGTAC | -0.1
43 | CCTGCACA | -0.243
44 | ATGCATAA | -0.0709
45 | CTTGGTGC | -0.0641
46 | CAAACATG | 0.0463
47 | ACCTTGGC | -0.161
48 | AGCCAAAA | 0.0448
49 | ACGTCGTC | -0.0679
50 | CACAATAC | -0.0413

Row | Sequence | PBM E-score
51 | TGCGTCCA | -0.0747
52 | AGTTCGTA | 0.233
53 | CTTGGTTC | 0.129
54 | CTTCCGCA | -0.018
55 | CTATGGAA | 0.0795
56 | ACATATCA | 0.319
57 | CTGGAAAG | -0.0435
58 | CGAGTGGC | -0.181
59 | AAGCCGGG | -0.12
60 | TCCCTACA | -0.0166
61 | AAAGGGGC | -0.121
62 | GAATACCA | -0.103
63 | GTAGGAAC | 0.0233
64 | CGTTGTGA | -0.0853
65 | CCCAAGTC | -0.0805
66 | CACAGAAA | 0.0606
67 | CGGCATAA | 0.0825
68 | GACTATGA | -0.0391
69 | CCTCTCAC | -0.23
70 | TTAACCAA | 0.109
71 | GAAACGCA | -0.0736
72 | CTCAGGGC | -0.176
73 | CTGCCTCC | -0.303
74 | CAATGCCG | 0.00213
75 | GATTAGCC | 0.0324

Row | Sequence | PBM E-score
76 | AAATACGG | 0.0232
77 | TATTCTCA | 0.0146
78 | AATTTGCC | 0.0969
79 | CTTCGACC | 0.0099
80 | ATACCAAT | 0.0642
81 | TCTTCGAA | -0.0952
82 | CTAAGAAC | 0.0633
83 | CACATGAA | 0.0613
84 | ATAAGAAC | 0.222
85 | CAGCACGG | 0.0193
86 | ACGAGTAG | -0.0655
87 | AACTTATA | 0.166
88 | ATCAGCGG | -0.0761
89 | AGGCTCTC | -0.171
90 | CCCTAGTC | -0.187
91 | GAAGGCTC | -0.291
92 | CTGACGCA | -0.174
93 | CCACCGTA | -0.0261
94 | CTGTGCAA | -0.136
95 | CCGTGACC | -0.101
96 | GCAGTGAA | 0.0767
97 | AACGGTGT | -0.00302
98 | CACACATA | 0.0356
99 | CAGTACTC | 0.0207
100 | TACGTCAA | -0.253

Row | Sequence | PBM E-score
101 | CCTGAGCG | -0.181
102 | AACTAATG | 0.123
103 | ACCATTAA | 0.0863
104 | ATTCCTTA | 0.0299
105 | AACCCAGA | -0.00144
106 | GAACTTAA | 0.104
107 | TTAACGAA | 0.0868
108 | AGGCACGC | -0.159
109 | ATCATTGA | 0.0367
110 | CTTCCGCC | -0.228
111 | GTATGACA | 0.294
112 | ATGAGAGC | -0.216
113 | GTAACATA | 0.0742
114 | CCACTATC | -0.0754
115 | GTTTGCTA | 0.0867
116 | CGAACTAG | -0.038
117 | CAGTTTCA | -0.22
118 | CGTCTATC | -0.0463
119 | CTTGTAGA | -0.152
120 | GTACCCAC | -0.13
121 | CATAGTAC | -0.0797
122 | GGTTCCGA | 0.15
123 | GAACCCTC | -0.12
124 | ATCCGAAG | 0.0243
125 | AGGCGCAA | 0.0394

Row | Sequence | PBM E-score
126 | TTCCGCAA | 0.156
127 | ATATCCCG | 0.216
128 | AGACCGCC | -0.214
129 | ATCACCAA | -0.0626
130 | CCCGGACG | -0.156
131 | ATCCCACC | -0.128
132 | CGCATTTA | 0.193
133 | CCCAGAGG | -0.306
134 | CGGTGGGC | -0.214
135 | CAACCTTG | -0.0125
136 | AGCAGTGC | -0.207
137 | TTGCGCAA | 0.209
138 | TAGGCGGA | 0.122
139 | TAGGGTCA | -0.0503
140 | ACATCGAC | 0.131
141 | AATTTACT | 0.2
142 | CTCAGATA | 0.154
143 | AACTTCGA | 0.0961
144 | AAGTATGT | 0.102
145 | CTTATTGC | -0.199
146 | CAGGCGCA | 0.0204
147 | AATAACAT | 0.0555
148 | AGAACGTG | -0.0907
149 | AATCTGTA | 0.131
150 | ATCACATC | -0.0349

Row | Sequence | PBM E-score
151 | GTCCTACA | 0.385
152 | AGCATAAG | 0.0713
153 | ACTTGATC | 0.178
154 | GGACGTTA | 0.0129
155 | AGATCTGC | 0.0313
156 | AGACTGCT | -0.0486
157 | GCGTTCCC | -0.183
158 | AAACATCT | 0.151
159 | GGTATCCA | -0.044
160 | AGTAATCG | 0.0169
161 | AACTAGCA | 0.0468
162 | GTTGGTCA | 0.151
163 | ACATCCTG | 0.192
164 | AGCATTGC | -0.0447
165 | CGACCGGC | -0.0696
166 | CGGCAAAG | -0.0995
167 | GGGTACAA | 0.198
168 | ACGTTTCA | 0.111
169 | ACCATCAC | -0.114
170 | GCGAACTA | 0.0518
171 | GACTACCC | -0.138
172 | AATAGGCG | 0.118
